Laboratory results from US20120253017A1 (published 2012).
One block for each binder: values may come before it.

Columns and labels:
[1] = biological target: Myosin Light Chain (on streptavidin chip; vMLC1-sulfotag); test: BIAcore, bivalent model
rat cKIT ECD [2] = biological target: T1, rat cKIT ECD (rat, UniProt Q63116 25-526); test: BIAcore, bivalent model
T1 construct: cloned into pDOM38, which provides a human IgG1 Fc; also called rcKIT; rckit; not shown: Human IgG1 Fc (and any linker) supplied by vector pDOM38

[3] = biological target: T2, human c-kit (recombinant, on BIAcore chip or beads) (human, UniProt P10721 in part); test: BIAcore, bivalent model, bad fit
T2 construct: extracellular domain; also called hcKIT; biotinylated human c-kit

[4] = biological target: cKIT-H6 (His tagged), MSD assay; test: MSD bridging assay, cKIT-H6 coated, vMLC1-sulfotag detection, 10% mouse serum
[5] = biological target: cKIT-H6 (His tagged), MSD assay; test: MSD bridging assay, cKIT-H6 coated, vMLC1-sulfotag detection, top standard concentration
[6] = biological target: T2, human c-kit (recombinant, on BIAcore …); test: BIAcore, bivalent model
[7] = biological target: T2, human c-kit (recombinant, on BIAcore …); test: BIAcore
[8] = biological target: Myosin Light Chain (on streptavidin chip; vMLC1-sulfotag); test: BIAcore
[9] = biological target: T2, human c-kit (recombinant, on BIAcore …); test: BIAcore; remark: listed apart in the source
rat cKIT ECD [10] = biological target: T1, rat cKIT ECD; test: BIAcore
[11] = biological target: Myosin Light Chain (on streptavidin chip; vMLC1-sulfotag); test: BIAcore, bivalent model, bad fit

T2 sequence (P10721 26-524): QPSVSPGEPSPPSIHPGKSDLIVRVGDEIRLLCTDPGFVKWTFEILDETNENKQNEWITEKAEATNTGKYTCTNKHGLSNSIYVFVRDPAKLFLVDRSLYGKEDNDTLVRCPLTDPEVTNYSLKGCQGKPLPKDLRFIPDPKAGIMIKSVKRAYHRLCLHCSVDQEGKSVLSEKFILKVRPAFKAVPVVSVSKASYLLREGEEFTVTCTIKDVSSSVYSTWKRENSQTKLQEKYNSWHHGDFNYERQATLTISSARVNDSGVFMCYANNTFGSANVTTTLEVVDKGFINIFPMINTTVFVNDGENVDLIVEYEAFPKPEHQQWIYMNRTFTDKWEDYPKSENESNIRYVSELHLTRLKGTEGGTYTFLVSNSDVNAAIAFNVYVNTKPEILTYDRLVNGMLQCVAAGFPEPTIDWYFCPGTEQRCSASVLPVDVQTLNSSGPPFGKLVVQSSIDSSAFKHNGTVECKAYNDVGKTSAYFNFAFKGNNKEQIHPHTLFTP
T1 sequence (Q63116 entry or part of it limits assumed, form in doubt): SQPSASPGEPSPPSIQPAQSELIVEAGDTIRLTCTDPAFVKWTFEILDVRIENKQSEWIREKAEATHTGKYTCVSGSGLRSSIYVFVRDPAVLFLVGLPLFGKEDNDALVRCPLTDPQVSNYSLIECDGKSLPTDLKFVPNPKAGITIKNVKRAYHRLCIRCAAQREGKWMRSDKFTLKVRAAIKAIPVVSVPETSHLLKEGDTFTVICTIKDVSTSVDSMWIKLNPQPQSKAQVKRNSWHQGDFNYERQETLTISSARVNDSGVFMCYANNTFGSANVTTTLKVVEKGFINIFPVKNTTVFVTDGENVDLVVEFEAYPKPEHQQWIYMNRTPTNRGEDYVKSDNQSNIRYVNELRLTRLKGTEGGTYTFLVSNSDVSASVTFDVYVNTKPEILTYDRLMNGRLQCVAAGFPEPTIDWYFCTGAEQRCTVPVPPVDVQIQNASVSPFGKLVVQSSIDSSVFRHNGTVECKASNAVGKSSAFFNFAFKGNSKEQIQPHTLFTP
Myosin Light Chain (on streptavidin chip; vMLC1-sulfotag), sequence (chain, as listed by the source): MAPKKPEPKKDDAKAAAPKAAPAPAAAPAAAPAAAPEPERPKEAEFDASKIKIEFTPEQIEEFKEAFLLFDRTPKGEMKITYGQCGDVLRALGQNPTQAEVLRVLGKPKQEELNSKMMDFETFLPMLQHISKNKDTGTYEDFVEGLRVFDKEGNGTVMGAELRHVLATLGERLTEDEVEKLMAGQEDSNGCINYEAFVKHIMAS

B1: DMS5071 (humanized 5-51 VH/4-1 Vk MLC mAb-DOM28m-007) (bispecific antibody, human IgG1, kappa)
heavy: EVQLVQSGAEVKKPGESLKISCKGSGYSFTTYWIHWVRQMPGKGLEWMGAIYPGDGDTRYTQNFKDQVTISADKSISTAYLQWSSLKASDTAMYYCAREGTPPFTTATFAMAYWGQGTLVTVSS[in this place human IgG1 constant region]STGEVQLLESGGGLVQPGGSLRLSCAASGFTFSNYAMGWVRQAPGKGLEWVSSISSSGFATYYADSVKGRFTISRDNSKNTLYLQMNSLRAEDTAVYYCAKSESRTFKAFDYWGQGTLVTVSS
light: DIVMTQSPDSLAVSLGERATINCKSSQSLLYSRTRKNYLAWYQQKPGQPPKLLIYWASTRQSGVPDRFSGSGSGTDFTLTISSLQAEDVAVYYCKQSYNLFTFGQGTKLEIKRTVAAPSVFIFPPSDEQLKSGTASVVCLLNNFYPREAKVQWKVDNALQSGNSQESVTEQDSKDSTYSLSSTLTLSKADYEKHKVYACEVTHQGLSSPVTKSFNRGEC
notes: human IgG1, dAb at heavy chain C-terminus; also called DM5071
Kd [1]: 13 nM
Kd (rat cKIT ECD [2]): 5000 nM
Kd [3]: 4000 nM
S:N @ ULOQ [4]: 811
s:N @ LLOQ [4]: 1.8
Top counts [5]: 67800 counts

B2: DMS5076 (humanized 5-51 VH/4-1 Vk MLC mAb-DOM28m-109) (bispecific antibody, human IgG1, kappa)
heavy: EVQLVQSGAEVKKPGESLKISCKGSGYSFTTYWIHWVRQMPGKGLEWMGAIYPGDGDTRYTQNFKDQVTISADKSISTAYLQWSSLKASDTAMYYCAREGTPPFTTATFAMAYWGQGTLVTVSS[in this place human IgG1 constant region]STGEVQLLESGGGLVQPGGSLRLSCAASGFTFSDYTMHWVRQAPGKGLEWVSRIDPMGIATYYADSVKGRFTISRDNSKNTLYLQMNSLRAEDTAVYYCAKDLRWATGFQQDFDYWGQGTLVTVS
light: B1 light
notes: human IgG1, dAb at heavy chain C-terminus
Kd [1]: 4 nM
Kd [6]: 4000 nM
Kd (rat cKIT ECD [2]): 1500 nM
S:N @ ULOQ [4]: 1100
s:N @ LLOQ [4]: 67.7
Top counts [5]: 3340 counts

B4: DMS5072 (humanized 5-51 VH/4-1 Vk MLC mAb-DOM28m-017) (bispecific antibody, human IgG1, kappa)
heavy: EVQLVQSGAEVKKPGESLKISCKGSGYSFTTYWIHWVRQMPGKGLEWMGAIYPGDGDTRYTQNFKDQVTISADKSISTAYLQWSSLKASDTAMYYCAREGTPPFTTATFAMAYWGQGTLVTVSS[in this place human IgG1 constant region]STGEVQLLESGGGLVQPGGSLRLSCAASGFTFEPYSMGWVRQAPGKGLEWVSQISASGDVTYYADSVKGRFTISRDNSKNTLYLQMNSLRAEDTAVYYCAKWRWRDSFENFDYWGQGTLVTVSS
light: B1 light
notes: as for B2
Kd [1]: 9 nM
Kd [6]: 8000 nM
Kd (rat cKIT ECD [2]): 3000 nM
S:N @ ULOQ [4]: 362
s:N @ LLOQ [4]: 1.5
Top counts [5]: 741 counts

B6: DMS5102 (humanized 5-51 VH/4-1 Vk MLC mAb-DOM28h-94-11) (bispecific antibody, human IgG1, kappa)
heavy: EVQLVQSGAEVKKPGESLKISCKGSGYSFTTYWIHWVRQMPGKGLEWMGAIYPGDGDTRYTQNFKDQVTISADKSISTAYLQWSSLKASDTAMYYCAREGTPPFTTATFAMAYWGQGTLVTVSS[in this place human IgG1 constant region]STGEVQPLESGGGLVQPGGSLRLSCAVSGFTFFPYAMGWVRQAPGKGLEWVSFISGRGDTTYYADSVKGRFTISRDNSKNTLYLQMNSLRAEDTAVYYCAKTATSDLWNFDYRGQGTLVTVSS
light: B1 light
notes: as for B2
Kd [8]: 5 nM
Kd [9]: 290 nM
Kd (rat cKIT ECD [10]): 125 nM
S:N @ ULOQ [4]: 4320
s:N @ LLOQ [4]: 29.6
Top counts [5]: 300000 counts

B12: DMS5078 (humanized 5-51 VH/4-1 Vk MLC mAb-DOM28h-094) (bispecific antibody, human IgG1, kappa)
heavy: EVQLVQSGAEVKKPGESLKISCKGSGYSFTTYWIHWVRQMPGKGLEWMGAIYPGDGDTRYTQNFKDQVTISADKSISTAYLQWSSLKASDTAMYYCAREGTPPFTTATFAMAYWGQGTLVTVSS[in this place human IgG1 constant region]STGEVQLLESGGGLVQPGGSLRLSCAASGFTFFPYAMGWVRQAPGKGLEWVSFISGRGDTTYYADSVKGRFTISRDNSKNTLYLQMNSLRAEDTAVYYCAKTATSDLWNFDYWGQGTLVTVSS
light: B1 light
notes: as for B2
Kd [1]: 10 nM
Kd [3]: 1000 nM
S:N @ ULOQ [4]: 958
s:N @ LLOQ [4]: 5.8
Top counts [5]: 100000 counts

Second part, the binder after the results:

binding result [7]: no binding (tested: 1 uM)
Kd [1]: 8 nM
S:N @ ULOQ [4]: 12.8
s:N @ LLOQ [4]: 12.8
Top counts [5]: 1170 counts
B3: DMS5077 (humanized 5-51 VH/4-1 Vk MLC mAb-DOM28m-112) (bispecific antibody, human IgG1, kappa)
heavy: EVQLVQSGAEVKKPGESLKISCKGSGYSFTTYWIHWVRQMPGKGLEWMGAIYPGDGDTRYTQNFKDQVTISADKSISTAYLQWSSLKASDTAMYYCAREGTPPFTTATFAMAYWGQGTLVTVSS[in this place human IgG1 constant region]STGEVQLLESGGGLVQPGGSLRLSCAASGFTFKVEDMGWVRQAPGKGLEWVSIIDSPGIGTYYADSVKGRFTISRDNSKNTLYLQMNSLRAEDTAVYYCAKWNFDSNQFDYWGQGTLVTVSS
light: B1 light
notes: as for B2

binding result [7]: no binding (tested: 1 uM)
Kd [1]: 13 nM
S:N @ ULOQ [4]: 199
s:N @ LLOQ [4]: 1.5
Top counts [5]: 18200 counts
B5: DMS5074 (humanized 5-51 VH/4-1 Vk MLC mAb-DOM28m-104) (bispecific antibody, human IgG1, kappa)
heavy: EVQLVQSGAEVKKPGESLKISCKGSGYSFTTYWIHWVRQMPGKGLEWMGAIYPGDGDTRYTQNFKDQVTISADKSISTAYLQWSSLKASDTAMYYCAREGTPPFTTATFAMAYWGQGTLVTVSS[in this place human IgG1 constant region]STGEVQLLESGGGLVQPGGSLRLSCAASGFTFSHYNMCWVRQAPGKGLEWVSGISPNGSSTYYADSVKGRFTISRDNSKNTLYLQMNSLRAEDTAVYYCAKQCLGHTRVFDYWGQGTLVTVSS
light: B1 light
notes: as for B2

binding result [7]: no binding (tested: 1 uM)
Kd [1]: 12 nM
S:N @ ULOQ [4]: 2.9
s:N @ LLOQ [4]: 2
Top counts [5]: 170 counts
B7: DMS5073 (humanized 5-51 VH/4-1 Vk MLC mAb-DOM28m-023) (bispecific antibody, human IgG1, kappa)
heavy: EVQLVQSGAEVKKPGESLKISCKGSGYSFTTYWIHWVRQMPGKGLEWMGAIYPGDGDTRYTQNFKDQVTISADKSISTAYLQWSSLKASDTAMYYCAREGTPPFTTATFAMAYWGQGTLVTVSS[in this place human IgG1 constant region]STGEVRLLESGGGLVQPGGSLRLSCAASGFTFRDYVMVWVRQAPGKGLEWVSAIAPTGGYTYYADSVKGRFTISRDNSKNTLYLQMNSLRAEDTAVYYCAKSLRTWLSEDLPFDYWGQGTLVTVSS
light: B1 light
notes: as for B2

binding result [7]: no binding (tested: 1 uM)
Kd [11]: 36 nM
S:N @ ULOQ [4]: 1380
s:N @ LLOQ [4]: 3.8
Top counts [5]: 100000 counts
B8: DMS5075 (humanized 5-51 VH/4-1 Vk MLC mAb-DOM28m-107) (bispecific antibody, human IgG1, kappa)
heavy: EVQLVQSGAEVKKPGESLKISCKGSGYSFTTYWIHWVRQMPGKGLEWMGAIYPGDGDTRYTQNFKDQVTISADKSISTAYLQWSSLKASDTAMYYCAREGTPPFTTATFAMAYWGQGTLVTVSS[in this place human IgG1 constant region]STGEVQLLESGGGLVQPGGSLRLSCAASGFTFRHYDMAWVRQAPGKGLEWVSTIASTGARTYYADSVKGRFTISRDNSKNTLYLQMNSLRAEDTAVYYCAKASGYSTAPQFDYWGQGTLVTVSS
light: B1 light
notes: as for B2

Kd [8]: 4 nM
Kd [9]: 74 nM
Kd (rat cKIT ECD [10]): 30 nM
S:N @ ULOQ [4]: 5430
s:N @ LLOQ [4]: 41.9
Top counts [5]: 300000 counts
B9: DMS5103 (humanized 5-51 VH/4-1 Vk MLC mAb-DOM28h-94-13) (bispecific antibody, human IgG1, kappa)
heavy: EVQLVQSGAEVKKPGESLKISCKGSGYSFTTYWIHWVRQMPGKGLEWMGAIYPGDGDTRYTQNFKDQVTISADKSISTAYLQWSSLKASDTAMYYCAREGTPPFTTATFAMAYWGQGTLVTVSS[in this place human IgG1 constant region]STGEVQPLESGGGLVQPGGSLRLSCAVSGFTIFPYAMGWVRQAPGKGLEWVSFISGRGDTTYYADSVKGRFTISRDNSKNTLYLQMNSLRAEDTAVYYCAKTATSDLWNFDYRGQGTLVTVSS
light: B1 light
notes: as for B2

Kd [8]: 7 nM
Kd [9]: 79 nM
Kd (rat cKIT ECD [10]): 49 nM
S:N @ ULOQ [4]: 4730
s:N @ LLOQ [4]: 31.4
Top counts [5]: 300000 counts
B10: DMS5105 (humanized 5-51 VH/4-1 Vk MLC mAb-DOM28h-94-15) (bispecific antibody, human IgG1, kappa)
heavy: EVQLVQSGAEVKKPGESLKISCKGSGYSFTTYWIHWVRQMPGKGLEWMGAIYPGDGDTRYTQNFKDQVTISADKSISTAYLQWSSLKASDTAMYYCAREGTPPFTTATFAMAYWGQGTLVTVSS[in this place human IgG1 constant region]STGEVQPLESGGGLVQPGGSLRLSCAASGFTVFPYAMGWVRQAPGKGLEWVSFISGRGDTTYYADSVKGRFTISRDNSKNTLYLQMNSLRAEDTAVYYCAKTATSDLWNFDYRGQGTLVTVSS
light: B1 light
notes: as for B2

Kd [8]: 5 nM
Kd [9]: 1000 nM
Kd (rat cKIT ECD [10]): 5000 nM
S:N @ ULOQ [4]: 4490
s:N @ LLOQ [4]: 42.3
Top counts [5]: 200000 counts
B11: DMS5104 (humanized 5-51 VH/4-1 Vk MLC mAb-DOM28h-94-14) (bispecific antibody, human IgG1, kappa)
heavy: EVQLVQSGAEVKKPGESLKISCKGSGYSFTTYWIHWVRQMPGKGLEWMGAIYPGDGDTRYTQNFKDQVTISADKSISTAYLQWSSLKASDTAMYYCAREGTPPFTTATFAMAYWGQGTLVTVSS[in this place human IgG1 constant region]STGEVQLLESGGGLVQPGGSLRLSCAVSGFTIFPYAMGWVRQAPGKGLEWVSFISGRGDTTYYADSVKGRFTISRDNSKNTLYLQMNSLRAEDTAVYYCAKTATSDLWNFDYWGQGTLVTVSS
light: B1 light
notes: as for B2
